# According to publication PMC4336329 (PLoS ONE, 2015):
# Screen size: about 310,000 compounds; about 14,000 (4.5%) showed an effect of 50% or more. Effects have a minus sign here. Some of the results follow.
# Target: human ether-à-go-go-related gene (hERG) potassium channel (human, UniProt Q12809)
# Test: primary screen, population patch clamp on CHO cells stably expressing hERG
# 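Also: peak tail current of the secondary pulse compared with the same well before compound.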
# human ether-à-go-go-related gene (hERG) potassium channel, sequence (Q12809 whole entry, looked up): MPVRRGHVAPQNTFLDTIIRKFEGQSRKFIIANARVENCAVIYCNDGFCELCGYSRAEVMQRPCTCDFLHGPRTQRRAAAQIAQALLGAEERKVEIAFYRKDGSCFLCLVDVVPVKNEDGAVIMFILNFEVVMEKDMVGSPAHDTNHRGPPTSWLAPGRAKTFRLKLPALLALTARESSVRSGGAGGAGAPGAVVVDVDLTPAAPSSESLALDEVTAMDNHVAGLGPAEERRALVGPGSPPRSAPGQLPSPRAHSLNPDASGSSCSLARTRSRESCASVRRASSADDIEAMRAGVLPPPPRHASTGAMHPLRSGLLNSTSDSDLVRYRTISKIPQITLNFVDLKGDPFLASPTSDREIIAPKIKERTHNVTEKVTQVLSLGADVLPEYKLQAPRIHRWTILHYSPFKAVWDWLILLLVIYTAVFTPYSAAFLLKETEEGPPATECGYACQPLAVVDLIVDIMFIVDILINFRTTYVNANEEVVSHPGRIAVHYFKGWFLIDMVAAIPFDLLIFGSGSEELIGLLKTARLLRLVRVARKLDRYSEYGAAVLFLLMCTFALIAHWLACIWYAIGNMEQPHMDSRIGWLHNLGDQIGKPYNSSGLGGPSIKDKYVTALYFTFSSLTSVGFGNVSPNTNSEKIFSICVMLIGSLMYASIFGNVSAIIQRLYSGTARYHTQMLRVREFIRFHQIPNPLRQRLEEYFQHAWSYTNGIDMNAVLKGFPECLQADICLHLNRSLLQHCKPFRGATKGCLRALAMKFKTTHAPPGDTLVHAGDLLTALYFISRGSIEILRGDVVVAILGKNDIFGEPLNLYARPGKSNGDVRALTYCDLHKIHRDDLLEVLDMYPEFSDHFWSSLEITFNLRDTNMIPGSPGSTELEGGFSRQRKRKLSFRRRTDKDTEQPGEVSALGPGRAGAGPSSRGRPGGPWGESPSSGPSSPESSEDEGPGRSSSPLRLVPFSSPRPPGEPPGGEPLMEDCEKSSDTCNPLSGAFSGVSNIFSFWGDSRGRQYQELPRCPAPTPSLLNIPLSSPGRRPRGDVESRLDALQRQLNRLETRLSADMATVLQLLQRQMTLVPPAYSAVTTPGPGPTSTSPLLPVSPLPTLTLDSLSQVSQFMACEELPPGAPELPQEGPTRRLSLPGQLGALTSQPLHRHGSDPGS
row,SMILES,"hERG current change (%, negative = inhibition) at 10uM [%]"
1,CC(=O)Nc1ccccc1C(=O)N1CCN(Cc2ccc3c(c2)OCO3)CC1,8.13
2,COCCC(=O)N1CCC(Oc2ccc(C(=O)NCc3csc(C)n3)cc2)CC1,12.6
3,CCO.Nc1nc(N)c2cc(Sc3ccc4ccccc4c3)ccc2n1,-24.4
4,COc1ccc(-n2c(=S)[nH]c3cc(C(=O)NCCCN4CCOCC4)ccc3c2=O)cc1OC,25.7
5,CC(CCc1ccccc1)NC(=O)CCNC(=O)Cn1ccc2ccccc2c1=O (stereo not drawn),18.5
6,COc1ccccc1CNC(=O)[C@H](C)NC(=O)C1CCN(C(=O)[C@@H](N)CC(C)C)CC1,-1.07
7,CCN1C[C@]2(COC)CC[C@H](OC)[C@@]34C5C[C@H]6C(=O)C5[C@](O)(C[C@H]6OC)[C@@](O)(C(OC)C23)[C@@H]14 (stereo partly drawn),8.94
8,CCc1ccc(N(C2C=CS(=O)(=O)C2)S(=O)(=O)c2ccc(C)cc2)cc1 (stereo not drawn),-19.1
9,Cc1ccc(Cn2c(C(C)Nc3nc(-c4ccc(F)cc4)cs3)nc3cc(Cl)c(Cl)cc32)cc1 (stereo not drawn),10.3
10,FC(F)(F)c1cccc(NC(=S)N2CCN(c3ccccn3)CC2)c1,12.3
11,COc1ccc(NC(=S)N2CCC(C(O)(c3ccccc3)c3ccccc3)CC2)cc1,3.75
12,COC(=O)c1cc2c(C)nn(C)c2s1,-4.74
13,Cc1ccc2c(c1)N(C(=O)CCC(=O)NCCCN1CCN(C)CC1)CCO2,-5.06
14,COc1cc(C2NC(=S)NC(c3ccccc3)=C2C(C)=O)ccc1O (stereo not drawn),15.4
15,O=Cc1ccc(OCc2ccc3c(c2)OCO3)cc1,14.9
16,Cn1nc(C(=O)NCCCN2CCCCC2)c2c1-c1ccccc1S(=O)(=O)C2,-0.878
17,COCCN=C1NC(=O)C(CC(=O)Nc2cccc(Cl)c2C)S1 (stereo not drawn),6.67
18,Cc1cc(=O)oc2cc(OCC3CC(c4ccc(Cl)cc4)=NO3)ccc12 (stereo not drawn),-2.25
19,CCC(CC)c1nnc(NC(=O)CS(=O)(=O)c2ccccc2)s1,4.38
20,O=C(NCCc1ccccc1)c1cccc(Br)c1,2.53
21,O=[N+]([O-])c1ccc(NCc2ccccc2)c2nonc12,19.7
22,Cc1csc2nc(SCC(=O)N3CCN(c4ccccc4)CC3)[nH]c(=O)c12,1.04

row,SMILES,"hERG current change (%, negative = inhibition) at 10uM [%]"
1,CCCOC(=O)c1ccc(Oc2c(-c3ccc(OCC)cc3O)n[nH]c2C)cc1,19.3
2,COc1ccccc1CCNC(=O)Cn1c(=O)oc2ccccc21,11.8
3,COc1ccc(CNC(=O)C[C@H]2C(=O)N(Cc3ccc(OC)cc3)C[C@@H]2Cc2ccccc2)cc1,-45.9
4,CCOC(=O)C1CCCN(C(=O)Cc2ccc(Cl)cc2)C1 (stereo not drawn),6.9
5,COc1cccc(CC(=O)N2CCCC(CCC(=O)N3CCN(c4ccccn4)CC3)C2)c1 (stereo not drawn),-41.3
6,O=C(NCC(=O)N1CCOCC1)OCc1ccccc1,-30.8
7,COc1ccccc1NC(=O)c1c(C)nc2ccccc2c1C(=O)O,2.78
8,O=C(Nc1ccnn1C1CCN(Cc2cc(Cl)ccc2O)CC1)C1CC1,-55
9,O=C(NC1CCc2ccccc21)C12CN(Cc3ccccc3)CC1C(c1cccc([N+](=O)[O-])c1)=NO2 (stereo not drawn),-1.84
10,Cc1ccc(NC(=O)CCc2nnc3ccc(NCc4ccco4)nn23)cc1,-2.39
11,c1ccc(-c2n[nH]c(-c3ccccn3)n2)cc1,12.4
12,Cc1cc(=O)c2c(O)c(O)ccc2o1,8.73
13,COC(=O)c1c(NC(=O)CSc2nnc(-c3cccnc3)n2Cc2ccco2)sc(C)c1C,-59.3
14,O=C(CC1C(=O)NCCN1CC1CCCCC1)NCCc1ccc(F)cc1 (stereo not drawn),-51.6
15,COc1ccc(CN(C)C(=O)CCN2C(=O)c3ccccc3C2=O)c(OC)c1OC,-2.22
16,NS(=O)(=O)c1ccc(CNC(=O)c2ccccn2)cc1,26.5
17,CCOC(=O)C1CN(S(=O)(=O)c2ccc(OC)cc2)c2cc(S(=O)(=O)CC)ccc2O1 (stereo not drawn),-52
18,Cc1[nH]nc(N2CCCCC2)c1[N+](=O)[O-],-6.37
19,CCCCc1cc(=O)oc2cc(C)cc(OC(C)C(=O)NCc3ccncc3)c12 (stereo not drawn),-36
20,O=C(COC(=O)COc1ccccc1)Nc1ccc(S(=O)(=O)N2CCOCC2)cc1,4.09
21,CCOC(=O)/C=C/[C@H]1Cc2ccccc2CO1,2.69
22,CCCCSCc1nc2ccccn2c1Br,13.3

row,SMILES,"hERG current change (%, negative = inhibition) at 10uM [%]"
1,Cc1ccc(OCc2nc(C#N)c(N3CCN(Cc4ccccc4)CC3)o2)cc1,-6.23
2,O=C(COc1ccc(F)cc1)NN1C(=O)CSC1=S,28.5
3,Cc1ccc(/C=N\NC(=O)c2ccc(Cn3cc(Br)c([N+](=O)[O-])n3)o2)o1,8.71
4,O=C(NCCCn1ccnc1)c1noc2c1CCc1ccccc1-2,-45.9
5,COc1ccc(S(=O)(=O)N2CCCN(CC(=O)Nc3ccc(NC(C)=O)cc3)CC2)cc1,2.8
6,COc1ccccc1-n1cnnc1SCC(=O)c1c[nH]c2ccccc12,21.2
7,O=S(=O)(Nc1ccccc1N1CCCCC1)c1ccc(F)cc1,-8.92
8,Cc1ccc2nc(NC(=O)c3cccc(-c4cc5ccccc5oc4=O)c3)sc2c1,12.9
9,Nc1c(S(=O)(=O)c2cccs2)c2nc3ccccc3nc2n1Cc1ccc2c(c1)OCO2,2.09
10,Cc1ccc(C(=O)NC2CCS(=O)(=O)C2)cc1S(=O)(=O)N1CCOCC1 (stereo not drawn),-13.3
11,CCCOc1ccc(C(C)(O)CN2CCOCC2)cc1 (stereo not drawn),15.6
12,COC(=O)c1ccc(CN2CCCC(C(=O)Nc3cccc(-n4cnnn4)c3)C2)cc1 (stereo not drawn),-47.7
13,S=c1[nH]nc(COc2ccccc2)n1/N=C/c1ccc(Br)cc1,25.1
14,Cc1ccc(C(=O)CSc2nnc(CNc3ccc(C)cc3C)o2)cc1,-10.7
15,O=C(O)c1ccccc1Nc1ccc(OC(F)F)cc1,20.6
16,O=c1ccc(Oc2nc(N3CCOCC3)nc(N3CCOCC3)n2)nn1-c1ccccc1,-5.35
17,CCN(C(=O)COC(=O)c1n[nH]c2ccccc12)c1ccccc1,-0.447
18,CSc1ccc(-c2sc(Nc3ccccc3)n[n+]2-c2ccccc2)cc1.[Cl-],-46.2
19,Cc1ccccc1NC1=C(Cl)C(=O)OC1OC(=O)c1ccco1 (stereo not drawn),5.17
20,Cc1ccc(S(=O)(=O)N/N=C\c2cccnc2)cc1,-4.07
21,COc1cccc(C(C)NC(=O)C2CCCC2)c1 (stereo not drawn),1.04
22,Cc1ccc(/C=C/C(=O)OCn2nnc3ccccc3c2=O)o1,7.85

row,SMILES,"hERG current change (%, negative = inhibition) at 10uM [%]"
1,Cc1cc(C)nc(/N=C(\N)Nc2ccc(-c3ccccc3)cc2)n1,-81.6
2,Cc1[nH]c(=O)[nH]c(=O)c1S(=O)(=O)N1CCCCC1,21.3
3,O=C(COc1ccccc1)NNC(=S)NC(=O)c1ccc(Cl)cc1Cl,14
4,COc1ccc(OC)c(/C=C/C(=O)Nc2ccc3c(c2)CCC3)c1,7.15
5,COc1cc2nc(C3CCC3)n(NC(=O)COc3ccccc3)c(=O)c2cc1OC,14.9
6,COc1ccc(CCNC(=O)CC(Cc2ccc(C)cc2)C(=O)O)cc1OC (stereo not drawn),5.06
7,Cc1[nH]c2ccccc2c1C(=O)COC(=O)c1ccc2c(=O)n3c(nc2c1)CCC3,36.6
8,O=C(c1ccc(F)cc1)[C@@H]1[C@@H](C(=O)c2ccccc2)[C@@]2(C(=O)Nc3ccccc32)[C@H]2c3ccccc3C=CN12,4.11
9,Cc1ccc(N=Cc2c(O)n(-c3ccc4c(c3)OCO4)c(=O)c3ccccc23)cc1,7.77
10,O=C(COC(=O)c1ncc(Cl)c(Cl)c1Cl)NC(=O)c1ccccc1,14.9
11,COc1ccccc1CNC(=S)NC1CCCCC1,-3.19
12,CC(CCc1ccccc1)NC(=O)C(=O)NCc1ccccc1 (stereo not drawn),12.6
13,COC(=O)c1cc(NC(=O)c2c(-c3c(Cl)cccc3Cl)noc2C)ccc1N1CCOCC1,-2.79
14,Cc1ccc2cc(C)c3nnc(SCC(=O)N4CCN(C(=O)c5ccco5)CC4)n3c2c1,-14.6
15,Cc1cccc(C(=O)Nc2cccc3c2CCCC3)c1,23.1
16,CN(C)S(=O)(=O)Nc1cccc(NC(=O)CC23CC4CC(CC(C4)C2)C3)c1,-2.88
17,COc1ccc(CCNc2ncnc3c2oc2ccccc23)cc1OC.Cl,0.357
18,Cc1nc(SC(C(N)=O)c2ccccc2)c(C#N)c(C)c1C (stereo not drawn),11.1
19,CC(C)(CN)CC(=O)O.Cl,11.6
20,Cc1ccc(S(=O)(=O)N2CCN(C(=O)COc3ccc(Br)cc3)CC2)cc1,-9.5
21,CNCc1c(C)nn(-c2ccccc2)c1C,9.96
